Results published in PubChem BioAssay AID493169 (National Center for Advancing Translational Sciences (NCATS), 2011).
This list was built around the results that the source calls inconclusive (neither active nor inactive); the mix of calls is not that of the screen. A potency beside an inconclusive call is a rough fit, not a confirmed value. Activity calls are given as the source filed them. The call rests on the fitted dose curve; in most records, active means well fitted inhibition curve with a large enough effect; inconclusive means small, poorly fitted or top-dose-only effect; inactive means flat fitted curve, though single readings scatter.

Assay: CHOP2 Reporter Counterscreen Assay for Inhibitors of Ubiquitin-specific Protease USP2a;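 further: activated enterokinase alone at 50 pM in a cell-free format rather than USP2a or CHOP2; nearly all actives have a fitted effect of over 55% in size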
Settings: purified enterokinase, fluorogenic substrate, 485/531 nm; series mostly up to 38.3 µM
Outline: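 Fluorescence (485/531 nm) read 10 min after adding 25nM reporter substrate to 50 pM activated EK preincubated 30 min RT with compound; Tris pH 8.0/CaCl2/CHAPS buffer. Data normalized to buffer-alone inhibition; concentration-response curves fitted.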
Potency means the concentration at half of the fitted maximal effect; tags describe the fitted curve by direction and shape.

| SMILES | Potency |
| --- | --- |
| O=C(Nc1ccc(N2CCCC2)c(Cl)c1)c1ccc(Br)o1 | inconclusive: 28.2 µM [inhibitor, single point] |
| O=C1COc2ccc(C(=O)COC(=O)/C=C/c3ccc(Br)o3)cc2N1 | active: 2.82 µM |
| COC(=O)c1c(O)c2c([nH]c1=O)CCCC2 | inactive |
| CC1(C)Cc2c(C#N)c(N3CCN(C(=O)c4ccco4)CC3)nc(-c3ccco3)c2CS1 | inconclusive: 28.2 µM [inhibitor, single point] |
| O=C1NC(=Nc2ccc3ccccc3c2)S/C1=C/c1ccco1 | active: 10 µM |
| COc1ccc(/C=C2\SC(=O)N(CC(=O)Nc3cccc(C)c3)C2=O)cc1O | inconclusive: 12.6 µM [inhibitor, single point] |
| CCCCCCCCCCCCCCCCn1cc[n+](C)c1 | active: 10 µM |
| Cc1nc2cc3ccccc3cc2c(=O)[nH]1 | inactive |
| O=c1oc2c(CN3CCCCC3)c(O)ccc2c2c1CCCCC2 | inactive |
| CC(C)(C)CC(C)(C)c1ccc(OCCOCC[N+](C)(C)Cc2ccccc2)cc1 | inconclusive: 28.2 µM [inhibitor, single point] |
| O=c1[nH]c(=S)[nH]c2c1C(c1ccc(Br)cc1)c1c([nH]c(=S)[nH]c1=O)O2 | inconclusive: 11.2 µM [inhibitor, single point] |
| CC(C)C(C(=O)O)N1C(=O)/C(=C/C=C/c2ccco2)SC1=S (stereo unspecified) | active: 2 µM |
| Cc1ccc(C2=NC(=O)/C(=C/c3cc(O)c(O)c(Br)c3)S2)cc1 | inconclusive: 0.891 µM [inhibitor, full curve, poor fit] |
| COc1cc(NC(=O)COC(=O)CSc2ccccc2F)c(C)cc1[N+](=O)[O-] | inactive |
| COc1ccc(-n2c(SCC(=O)N3CCN(c4ccccc4)CC3)nc3c(c2=O)SCC3)cc1 | inactive |
| COc1ccccc1N1C(=O)CC(N2CCc3ccccc32)C1=O (stereo unspecified) | inactive |
| O=C(N/N=C/c1ccc(Sc2ccccn2)o1)c1cc2ccccc2cc1O | inconclusive: 28.2 µM [inhibitor, single point] |
| COc1ccccc1C1NC(c2ccccc2OC)C(C)C(=O)C1C (stereo unspecified) | inactive |

| SMILES | Potency |
| --- | --- |
| COC(=O)CCC/C=C1/SCC(NC(=O)c2ccccc2)C1=O (stereo unspecified) | inconclusive: 22.4 µM [inhibitor, single point] |
| O=C(CC(C(=O)O)C1CCCO1)NCCc1ccc2c(c1)OCO2 (stereo unspecified) | inactive |
| Cc1ccc(NC(=O)COC(=O)c2ccc(NC(=O)CC#N)cc2)cc1S(=O)(=O)N1CCOCC1 | inconclusive: 20 µM [inhibitor, single point] |
| c1ccc(CN2CCN(CCOCCOc3cccc4ccccc34)CC2)cc1 | inconclusive: 28.2 µM [inhibitor, single point] |
| O=C(/C=C/c1ccc(Cl)c([N+](=O)[O-])c1)Nc1ccc(N2CCCC2)cc1 | inconclusive: 22.4 µM [inhibitor, single point] |
| CCNc1sc(C(=O)c2cccs2)c(N)c1-c1nc2ccccc2s1 | inactive |
| CN1CCN(S(=O)(=O)c2ccc(N3CCN(S(=O)(=O)/C=C/c4ccccc4)CC3)nc2)CC1 | inactive |
| CCOC(=O)C1CCN(CC(O)COc2ccc(C(C)(C)C)cc2)CC1 (stereo unspecified) | inactive |
| S=c1[nH]nc(-c2cc(-c3ccccc3)n[nH]2)n1/N=C/c1ccc(Br)s1 | inconclusive: 28.2 µM [inhibitor, single point] |
| O=C(CNC(=O)c1ccco1)Nc1ccc(S(=O)(=O)N2CCCC2)cc1 | inactive |
| CCOc1cc(/C=C2\C(=O)N(c3nc(-c4ccc(Br)cc4)cs3)N=C2c2ccccc2)ccc1O | active: 4.47 µM |
| N#C/C(=C\c1ccc(O)c(O)c1)C(=O)Nc1cccc2ncccc12 | inconclusive: 1.26 µM [inhibitor, full curve, poor fit] |
| Cc1cccc(N=C2NC(=O)/C(=C/C=C/c3ccco3)S2)c1 | active: 10 µM |
| COc1cc(/C=C/[N+](=O)[O-])ccc1OCc1cccc(C(=O)O)c1 | inconclusive: 10 µM [inhibitor, partial curve, poor fit] |
| COc1ccccc1N1CCN(c2cc(C)nc3nc(C)nn23)CC1 | inactive |
| CC(C)(C)CC(C)(C)NCC(=O)Nc1c2c(nc3ccccc13)CCC2 | inconclusive: 28.2 µM [inhibitor, single point] |
| c1coc(CNc2nc(-c3cccs3)cs2)c1 | inactive |
| Cc1ccc(OCC(=O)Nc2ccc(N3CCCC3)cc2)cc1C | active: 10 µM |
